Source: article PMC4336329 (PLoS ONE, 2015)
Screen size: about 310,000 compounds; about 14,000 (4.5%) showed an effect of 50% or more. Effects have a minus sign here. This is one part of the list.

Target: human ether-à-go-go-related gene (hERG) potassium channel (human, UniProt Q12809)
Test: primary screen, population patch clamp on CHO cells stably expressing hERG
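Further: peak tail current of the secondary pulse compared with the same well before compound.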

human ether-à-go-go-related gene (hERG) potassium channel, sequence (Q12809 whole entry, looked up): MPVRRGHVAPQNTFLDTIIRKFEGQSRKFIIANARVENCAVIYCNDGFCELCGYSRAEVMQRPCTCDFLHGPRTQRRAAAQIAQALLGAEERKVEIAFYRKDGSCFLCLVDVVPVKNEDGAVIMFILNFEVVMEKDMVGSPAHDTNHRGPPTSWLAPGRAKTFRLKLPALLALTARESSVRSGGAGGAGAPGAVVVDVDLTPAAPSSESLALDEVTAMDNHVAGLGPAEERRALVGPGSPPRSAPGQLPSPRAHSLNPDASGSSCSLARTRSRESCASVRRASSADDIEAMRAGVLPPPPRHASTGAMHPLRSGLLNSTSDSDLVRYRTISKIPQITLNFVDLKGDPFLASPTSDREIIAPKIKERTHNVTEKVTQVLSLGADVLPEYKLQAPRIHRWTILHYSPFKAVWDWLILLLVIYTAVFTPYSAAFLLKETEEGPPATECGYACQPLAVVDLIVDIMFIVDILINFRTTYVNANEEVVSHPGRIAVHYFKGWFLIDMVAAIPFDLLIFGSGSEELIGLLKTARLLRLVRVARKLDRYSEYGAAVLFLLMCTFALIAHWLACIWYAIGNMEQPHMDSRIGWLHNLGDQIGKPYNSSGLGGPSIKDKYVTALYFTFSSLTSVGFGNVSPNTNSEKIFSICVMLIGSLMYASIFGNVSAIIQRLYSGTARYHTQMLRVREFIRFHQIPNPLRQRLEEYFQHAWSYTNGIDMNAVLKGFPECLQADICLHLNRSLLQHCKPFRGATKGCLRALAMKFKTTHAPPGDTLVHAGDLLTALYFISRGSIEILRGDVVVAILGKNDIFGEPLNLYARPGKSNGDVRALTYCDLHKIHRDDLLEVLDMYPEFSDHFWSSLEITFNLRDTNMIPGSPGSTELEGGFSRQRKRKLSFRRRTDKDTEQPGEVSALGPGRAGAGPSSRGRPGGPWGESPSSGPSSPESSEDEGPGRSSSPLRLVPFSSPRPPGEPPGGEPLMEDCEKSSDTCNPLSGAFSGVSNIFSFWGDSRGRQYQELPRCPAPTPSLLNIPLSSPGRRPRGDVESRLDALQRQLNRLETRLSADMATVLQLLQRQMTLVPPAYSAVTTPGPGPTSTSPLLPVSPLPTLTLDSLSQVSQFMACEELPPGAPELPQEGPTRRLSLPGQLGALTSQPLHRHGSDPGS

Point of comparison: `O=c1[nH]c2ccccc2nc1C(Nc1ccccc1)c1ccccc1` (centres unmarked), “hERG current change (%, negative = inhibition) at 10uM” value -0.607%. Against it:
- CCS(=O)(=O)c1ccc(-c2cccc(NC(=O)c3ccc(Br)o3)c2)nn1 — lower, -31.1%
- Brc1ccc(-c2nc(-c3ccncc3)no2)cc1 — higher, 15.8%
- Cc1cc(C)nc(NC(=O)CCN2C(=O)c3ccccc3S2(=O)=O)n1 — lower, -5.11%
- CC(=O)Nc1ccc(-c2nnc(SCc3ccccc3C#N)n2C)cc1 — lower, -6.67%
- CCOc1ccc2nc(SCC(=O)NCc3ccccc3OC)[nH]c2c1 — lower, -6.24%
- Nc1cc(C(=O)OCC(=O)c2ccc(CC(=O)N3CCOCC3)s2)ccc1Cl — lower, -27.8%
- CCN(C(=O)CSc1nc2cc(Cl)ccc2c(=O)n1CC(C)C)C1CCS(=O)(=O)C1 (centres unmarked) — higher, 2.51%
- Cc1cc(C)nc(NS(=O)(=O)c2ccc(NC(=S)NC(=O)C3CCCC3)cc2)n1 — lower, -5.83%
- COc1cc(OC)cc(C(=O)OCCCOC(=O)c2cc(OC)cc(OC)c2)c1 — higher, 24.6%
- CN1CCN(/N=C/c2c[nH]c3ccccc23)CC1 — higher, 14.5%
- NC(=O)N/N=C/CCc1ccccc1 — higher, 14%
- CC(C)C(NC(=O)c1ccco1)C(=O)OCC(=O)c1ccccc1 (centres unmarked) — higher, 16.2%
- CCN(CC(=O)Nc1c(F)cccc1F)C(=O)CSCC(=O)Nc1ccc(OC)cc1 — lower, -3.35%
- COc1ccccc1CNC(=O)COc1ccc(S(=O)(=O)N2CCOCC2)cc1 — lower, -14.5%
- Cc1ccccc1C(=O)Nc1cc(S(=O)(=O)N2CCOCC2)ccc1N1CCN(C)CC1 — lower, -17.4%
- CCOC(=O)c1c(NC(=O)Cn2c(C)nc3ccccc32)sc2c1CCC2 — lower, -0.987%
- O=C(CCNS(=O)(=O)c1ccc(Br)s1)NCc1ccccc1Cl — lower, -3.77%
- O=C(O)CCN1C(=O)c2ccccc2Sc2ncccc21 — higher, 12.9%
- O=C(Cc1csc(NC(=O)Nc2cccc(Cl)c2)n1)NC1CCCC1 — higher, 16.4%
- CC(=O)Nc1ccc(S(=O)(=O)N2CCN(S(=O)(=O)N3CCCCCC3)CC2)cc1 — higher, 8.41%
- Cn1c(NC(=O)c2ccccc2)cc(=O)n(C)c1=O — lower, -8.17%
- Cc1ccc(SCCC(=O)NCC2CCCO2)cc1 (centres unmarked) — higher, 22.4%
- CCOC(=O)c1nc(C)c(C(C)=O)s1 — higher, 14.8%
- COc1ccc(C(=O)N/N=C/c2cccnc2)cc1 — higher, 13.1%
- Cc1c(C(=O)O)oc2ccc(S(=O)(=O)NCc3ccc4c(c3)OCO4)cc12 — higher, 11.4%
- Cc1ccc(NS(=O)(=O)c2ccc(N3C(=O)CCC3=O)cc2)cc1 — lower, -11.5%
- Cc1ccc(C(=O)OCc2cc3ccccc3[nH]c2=O)cc1 — higher, 13.3%
- Cc1cc(=O)n2nc(N3CCCC(C(=O)Nc4ccc(C)c(C)c4)C3)sc2n1 (centres unmarked) — lower, -48.2%
- COc1ccc(NC(=O)c2sccc2OS(=O)(=O)N(C)C)cc1 — higher, 11.2%
- CC(C)CN1CCNC(=O)C1CC(=O)NCCc1ccc(C(F)(F)F)cc1 (centres unmarked) — higher, 0.053%
- N#Cc1cnn(-c2ccccc2)c1NC(=O)CN1CCN(c2ccccc2)CC1 — lower, -5.56%
- CCOc1ccc(C(=O)NCCc2ccc3c(c2)OCCO3)cc1 — lower, -5.27%
- Cc1ccc(N2CN(Cc3cccnc3)CNC2=S)cc1 — higher, 4.71%
- COCCN(CCOC)C(=O)CN1C(=O)NC2(CCCc3sccc32)C1=O (centres unmarked) — higher, 20.6%
- COc1ccccc1CNC(=O)CN(C)S(=O)(=O)c1cccc2cccnc12 — lower, -3.12%
- CCSc1nnc2c(n1)OC(c1ccc(C(=O)O)cc1)N(C(C)=O)c1ccccc1-2 (centres unmarked) — higher, 2.28%
- S=C1NCCc2ccccc2C1c1ccccc1 (centres unmarked) — lower, -14.5%
- COC(=O)CC1C(=O)NCCN1C(=O)CSc1nc2ccccc2s1 (centres unmarked) — higher, 20.6%
- COCCn1c(=N)c(C(=O)NCc2ccco2)cc2c(=O)n3ccccc3nc21 — lower, -78.1%
- O=S(=O)(NCc1csc(-c2cccs2)n1)c1cccc(C(F)(F)F)c1 — lower, -22%
- CCC(=O)Nc1cc(C(=O)OCC(=O)c2ccccc2Cl)ccc1C — higher, 14.8%
- Cc1cc(C)cc(OCC(=O)NNC(=O)c2ccccn2)c1 — lower, -34.6%
- O=C(COc1ccc(Cl)cc1)NC(=S)Nc1ccccc1N1CCOCC1 — higher, 17.4%
- O=C(c1ccc(F)cc1Cl)N1CCN(CCc2ccccc2)CC1 — lower, -44%
- CNCc1ccccc1Sc1cccc(O)c1.O=C(O)/C=C\C(=O)O — higher, 7.03%
- Cc1ccc(-n2ncc3c2CCCC3NC(=O)CCCN2CCCC2=O)cc1C (centres unmarked) — lower, -7.79%
- COCc1ccc(C(=O)N2CCCC(Nc3ccc4c(c3)OCCO4)C2)o1 (centres unmarked) — higher, 11.2%
- COC(=O)c1c(NC(=O)c2cccs2)sc2c1CCC(C)C2 (centres unmarked) — higher, 6.28%
- CC1(C)CC(NC(=O)Cc2ccccc2)CC(C)(C)N1.Cl — higher, 14.8%
- O=C(Cc1c(F)cccc1Cl)NCC(=O)OCc1ccccc1 — higher, 0.129%
- CCOC(=O)/C(C#N)=C\c1ccc2c(c1)OCO2 — higher, 1%
- Cc1cccc(NC(=S)NC2CC3CCC(C2)N3Cc2ccco2)c1C (centres unmarked) — lower, -14.6%
- O=C(Nc1ccccc1F)Nc1ccccc1OC(F)F — lower, -0.73%
- COc1cc(NC(=O)[C@@H](NC(=O)N2CCn3c2nc2ccccc23)C(C)C)cc(OC)c1 — higher, 18.9%
- N#Cc1nc(COc2ccccc2)oc1N1CCCCCC1 — lower, -23.5%
- COC(=O)/C=C/COc1ccccc1[N+](=O)[O-] — higher, 14.3%
- COc1cccc(CNC(=O)c2cccc(NC3=NC4CS(=O)(=O)CC4S3)c2)c1 (centres unmarked) — higher, 15.3%
- COc1ccccc1CNc1ccc(C(=O)O)cc1 — higher, 12.9%
- CCCCNS(=O)(=O)c1ccc2nc(SCC(=O)Nc3cccc(F)c3)[nH]c2c1 — lower, -10.2%
- COc1ccc(OCCOC(=O)CN2C(=O)NC3(CCCC3)C2=O)cc1 — higher, 14.2%
- O=C(Cn1c(=O)cnc2ccccc21)Nc1cccc(S(=O)(=O)N2CCOCC2)c1 — lower, -21%
- O=C(Nc1ccc(N2CCOCC2)c(Cl)c1)c1ccc2c(c1)OCCO2 — higher, -0.379%
- O=C(Nc1cc(S(=O)(=O)N2CCCCC2)ccc1Cl)c1ccccc1NS(=O)(=O)c1ccc(F)cc1 — higher, 16.2%
- Cc1ccc(S(=O)(=O)NCCOc2nc(N3CCOCC3)nc(N3CCOCC3)n2)cc1 — lower, -18.6%
- Fc1ccc(NCc2nnc(SCc3ccccc3)o2)cc1 — lower, -13.3%
- CC(C)CC(=O)Nc1ccc(Oc2ccc3c(c2)C(=O)NC3=O)cc1 — higher, 10.9%
- Cc1cc(C(=O)NC2CC2)c2ccccc2n1 — higher, 19.9%
- CN(C(=O)c1ccc2nc(N)sc2c1)c1ccccc1 — higher, 15%
- COc1ccccc1NC(=O)CN1CCSc2ccccc21 — higher, 2.2%
- O=S(=O)(Nc1cccc(-c2ccc(N3CCOCC3)nn2)c1)c1ccc(Cl)c(Cl)c1 — lower, -19%
- CC1CCN(c2nc3ccc(C(=O)N4CCN(Cc5ccccc5)CC4)cc3s2)CC1 — lower, -17.1%
- Cc1nc(NC(=O)CSC2=NCCS2)sc1C(=O)N(C)C — lower, -12%
- Cc1cccnc1NC(=O)c1ccc(Cl)c(S(=O)(=O)N2CCCC2)c1 — lower, -9.58%
- O=c1c(Cl)c(Cl)cnn1Cc1ccc(F)cc1 — higher, 3.54%
- Cc1nn(-c2nnc(C)c(=O)[nH]2)c(C)c1SCC(=O)Nc1ccc(C(C)C)cc1 — higher, 8.99%
- COC(=O)c1ccc(C(=O)Nc2cc(Cl)ccc2Cl)cc1NC(=O)c1ccc(N(C)C)cc1 — higher, 12.6%
- COc1ccc(C(=O)Nc2nc3ccccc3[nH]2)cc1S(=O)(=O)N1CCOCC1 — lower, -70.1%
- CC(C)CC(=O)NC(NC(=O)CC(C)C)c1cccc([N+](=O)[O-])c1 — higher, 13.6%
- Cc1ccc(S(=O)(=O)NCCC(=O)OCC(=O)N(Cc2ccccc2)C(C)(C)C)cc1C — lower, -9.35%
- CCCCCCSc1ccc([C@@H]2[C@@H]3C(=O)N(C)C(=O)[C@@H]3[C@]3(C(=O)OC)CCCCN23)cc1OC.O=C(O)C(F)(F)F — lower, -5.95%
- O=C(NCc1ccccc1Cl)c1ccc2ccccc2n1 — lower, -1.85%
- CCOC(=O)CC(NC(=O)CCc1c(C)nc2nc(C)nn2c1C)c1ccc(C)cc1 (centres unmarked) — higher, 6.14%
- C=CCn1cc(Cl)c(=O)n(CC=C)c1=O — higher, 1.11%
- CSc1c2c(nc3ncnn13)CCC2 — higher, 1.7%
- O=C(c1ccc2c(c1)OCCO2)N1CCN(S(=O)(=O)c2c(F)cccc2F)CC1 — higher, 7.53%
- CC(C)CCn1nnnc1C(c1ccccc1)N1CCN(C)CC1 (centres unmarked) — lower, -7.42%
- O=C(c1cc(Cl)nc2ccccc12)N1CCc2ccccc2C1 — lower, -19.5%
- S=c1[nH]nc(C2CCCCC2)n1/N=C/c1ccco1 — higher, 6.41%
